Reference: PubChem BioAssay AID1645887 (National Center for Advancing Translational Sciences (NCATS), 2021)
Where “and” joins values, the source holds several entries; their conditions need not be identical. Identical values can stand only once. About 40 (0.2%) of roughly 16,000 compounds were called active. About 1% were inconclusive and are not listed. Calls follow the shape of the dose curve; as a rule, active = well fitted activation curve with a large enough effect; inconclusive = small, poorly fitted or top-dose-only effect, or another doubt; inactive = no such curve, though single readings can be large or run the other way. The list shows a part of the results.

The compounds below were run against Rap guanine nucleotide exchange factor 4 (Homo sapiens) (UniProt Q8WZA2) (assay: Validation qHTS for agonist of cAMP-regulated guanine nucleotide exchange factor 4 (EPAC2)). Settings: EPAC2 Rap1B BODIPY-GDP exchange, fluorescence; activation: hits give high values.
Summary of the method: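 Signal normalized against 6.5 mM cAMP as agonist control. Mix of EPAC2 (100 nM), RAP1B-BODIPY-GDP (250 nM) and GDP (50 uM) was read kinetically at 480/540 nm, every 5 min over 30 min, after 5 min room-temperature incubation with compound.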
% is scaled to controls: 0 for no effect and ±100 for the full control effect.
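Also: exchange makes BODIPY-GDP fluorescence drop when released from Rap1B; series mostly up to about 150 µM.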

Sequence of UniProt Q8WZA2 (Q8WZA2 whole entry, looked up): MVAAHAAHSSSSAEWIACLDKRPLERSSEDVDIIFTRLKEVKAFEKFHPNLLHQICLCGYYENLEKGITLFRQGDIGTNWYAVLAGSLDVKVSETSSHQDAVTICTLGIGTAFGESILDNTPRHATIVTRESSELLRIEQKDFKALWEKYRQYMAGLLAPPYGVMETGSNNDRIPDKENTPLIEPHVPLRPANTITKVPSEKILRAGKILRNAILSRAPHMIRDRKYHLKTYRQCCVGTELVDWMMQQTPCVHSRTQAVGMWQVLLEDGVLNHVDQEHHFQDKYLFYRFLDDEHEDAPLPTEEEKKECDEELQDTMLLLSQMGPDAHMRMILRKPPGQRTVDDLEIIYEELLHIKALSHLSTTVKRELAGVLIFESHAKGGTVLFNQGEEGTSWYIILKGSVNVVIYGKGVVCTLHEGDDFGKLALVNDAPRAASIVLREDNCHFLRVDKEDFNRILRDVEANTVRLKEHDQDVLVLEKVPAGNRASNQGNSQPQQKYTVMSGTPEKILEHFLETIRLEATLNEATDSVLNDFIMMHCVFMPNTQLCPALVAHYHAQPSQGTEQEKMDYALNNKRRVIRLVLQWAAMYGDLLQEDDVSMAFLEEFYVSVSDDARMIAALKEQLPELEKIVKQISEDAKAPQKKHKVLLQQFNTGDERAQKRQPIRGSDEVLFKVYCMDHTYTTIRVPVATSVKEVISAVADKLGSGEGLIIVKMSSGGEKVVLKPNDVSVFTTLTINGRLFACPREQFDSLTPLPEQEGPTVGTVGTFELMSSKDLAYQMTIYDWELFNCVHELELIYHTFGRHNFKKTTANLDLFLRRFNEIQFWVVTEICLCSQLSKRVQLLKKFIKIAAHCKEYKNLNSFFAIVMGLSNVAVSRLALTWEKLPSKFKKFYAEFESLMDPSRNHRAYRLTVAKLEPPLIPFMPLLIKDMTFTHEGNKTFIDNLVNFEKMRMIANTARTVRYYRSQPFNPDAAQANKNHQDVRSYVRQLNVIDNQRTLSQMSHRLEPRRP

activation, inactive:
Nc1ccc(Cc2ccc(C=O)cc2)cc1 -12.1%
O=C(O)CCC(=O)O -1.89%
CCO[C@H]1[C@H](NC(=O)c2cccnc2)c2ccccc2C12CCN(C(=O)c1cc(C)n(C)n1)CC2 4.53%
NC1=NCC2c3ccccc3Cc3ccccc3N12 (centres undefined) -4.47% and -18.4%
CC(=O)Nc1ccccc1-c1nc(CNC(=O)c2ccc(-c3ccccc3F)cc2)c(C)o1 -14.7%
Cc1ncc2c(c1CNC(=O)/C=C/c1cccs1)CCN(C(=O)C1CC(=O)OC13CCCCC3)C2 (centres undefined) -7.26%
CSCCC(N)C(=O)O (centres undefined) -14%
O=C(c1csnn1)N1CCC2(CC1)CCN(c1ccncc1)CC2 -15.1%
CCCCCCCCCCCCCCCCCCN(CCCCCCCCCCCCCCCCCC)c1ccccc1 -4.23%
O=C(Nc1nccs1)[C@@H]1CC=C[C@@H]2CCN(Cc3ccc(Cl)c(Cl)c3)C(=O)[C@@H]21 2.91%
C[C@]12O[C@H](C[C@]1(O)CO)n1c3ccccc3c3c4c(c5c6ccccc6n2c5c31)CNC4=O 6.79%
Cc1nc2ccc(NC(=O)Nc3ccnc4cccnc34)cc2o1 18.1%
C[N+]1(CC(=O)c2ccc(Br)cc2)CCOCC1 -25%
O=c1c(O)c(Br)ccc2c(Br)c(O)c(O)c(O)c12 -10.1%
C[C@@H](N)C(=O)O -9.64% and -0.696%
C[N+]1(CC(=O)c2ccc(Cl)c(Cl)c2)CCOCC1 -13.6%
CC(C)Oc1ccc(C(=O)NCC2Cc3cc(Cl)cc(-c4ncccn4)c3O2)cc1 (centres undefined) -7.68%
COc1ccc2c(c1)CCc1cnc(-n3ncc(C(=O)NCCN4CCOCC4)c3C)nc1-2 -4.54%
CC(C)[C@@H](N)C(=O)O -1.75%
O=C(O[C@H]1[C@H](Cc2ccccc2)NS(=O)(=O)[C@H]2CC3C=C[C@]12O3)c1ccc(Br)cc1 -20.3%
Cc1nn(C)c(Cl)c1CN1CCOc2ccc(CN3CCC(Oc4cccnc4)CC3)cc2C1 -17%
OC[C@@H](O)COc1cccc2ccccc12 -15.6%
Cc1noc(C)c1-c1cncnc1NC1CC1 -7.98%
CCCC(=O)O[C@]1(C(=O)CO)CC[C@H]2[C@@H]3CCC4=CC(=O)CC[C@]4(C)[C@H]3[C@@H](O)C[C@@]21C -8.47%
COc1cccc(N2[C@@H](CC(C)=O)c3ccc(/C=C/C(C)=O)cc3S2(=O)=O)c1 -19.4%
COc1ccc(CNc2ccnc(-c3cccc(C#N)c3)n2)c(OC)c1 -14.3%
CN(C)c1nc(N)c(C(=O)N=C(N)N)nc1Cl -5.57%
O=c1[nH]c(=O)n([C@H]2C[C@H](O)[C@@H](CO)O2)cc1C(F)(F)F -28.9%
CC(=O)OC1CC[C@@]2(C)C(CC[C@@]3(C)C2CC=C2C4CC(C)(C)CC[C@]4(C)CC[C@@]23C)C1(C)C (some centres undefined) 7.28%
CN(C)Cc1ccccc1-c1nc(NCc2cccs2)c2ccccc2n1 -8.49%
Cn1cc(-c2nc3cnc(N4CCNCC4)nc3n(Cc3ccc(F)cc3)c2=O)c2ccccc21 6.96%
CCOC(=O)C1=C(N)Oc2ccc(Br)cc2[C@@H]1[C@@H](C#N)C(=O)OCC -6.43%
Cc1nnc(SCC2=C(C(=O)O)N3C(=O)[C@@H](NC(=O)Cn4cnnn4)[C@H]3SC2)s1 -3.13% and -19.8%
CCCCCCCCCCCCCCCCOCCOCCOCCOCCOCCOCCOCCOCCOCCOCCOCCOCCOCCOCCOCCOCCOCCOCCOCCOCCO -24.3%
Cc1ccc(C(=O)NCCc2nnc3n2CCN(C(=O)c2ccnc(Cl)c2)CC3)cc1 -22.4%
COc1ccc(C(=O)N2CCC3(CC2)CCN(C(c2ccccc2)c2ccccc2)CC3)cc1 -11.2%
CN(C)CC[C@@H](c1ccc(Br)cc1)c1ccccn1 -8.71% and -32.8%
CCCC[C@H]1COCCS(=O)(=O)N1Cc1ccc(Br)cc1 -9.8%
N#CCCn1c(=O)cnc2cnc(N3CCOCC3)nc21 -20.8%
N#Cc1ccccc1-c1ccc2ncnc(NCc3cccnc3)c2c1 -15.8%
CCC(C)[C@@H](N)C(=O)O (some centres undefined) -3.86% and 8.19%
C1=C(c2ccc3c(c2)CN(Cc2cccn2-c2ncccn2)CCO3)Cc2ccccc21 -16.1%
CCNc1ncc2nc(-c3ccc(F)cc3)c(=O)n(CCc3ccccc3)c2n1 -0.0022%
COc1ccc(CN2CCc3nnc(CNC(=O)c4cc(C)oc4C)n3CC2)c2ccccc12 -30.9%
COc1cc(=O)n2c(c1C(=O)NCc1ccc3c(c1)OCO3)CCN(C(=O)c1ccccc1F)CC2 -10.5%
O=S(=O)(c1ccccc1)N1CCC2(CCCN(c3ccccn3)C2)CC1 -0.282%
COCCn1c(=O)c(CCc2ccccc2)nc2cnc(OCc3ccccc3)nc21 1.87%
Cc1noc(C)c1-c1nccc(N2CCN(C)CC2)n1 -3.41%
COCC(=O)Nc1cc(C(=O)NC2Cc3ccccc3C2)cc2nc(-c3cccnc3)n(C)c12 1.31%
C=C(C)C1CC=C(C(=O)O)CC1 (centres undefined) -6.72% and -22%
N[C@H](C(=O)O)[C@@H]1C[C@@H]1C(=O)O -6.19% and -12.1%
O=C1[C@H](Cc2ccccc2)NCCCC[C@H](c2ccco2)N1Cc1ccccc1 -36.5%
O=c1[nH]c2cc(Cl)c(Cl)cc2[nH]c1=O -6.74% and -1.04% and -11.8%
COc1ccc(C(=O)N2CCC[C@@]3(CCN(CC(C)C)C3)C2)cc1 -20.4%
